Conditions: 37°C, up to 6 h, absence of BNPP
Method: Compound stability in mouse plasma was assessed in the absence and presence of 500 µM bis-para-nitrophenyl phosphate (BNPP), a known carboxylesterase inhibitor ([Eng et al., 2010]). Compound was spiked into blank mouse plasma (that had been pre-equilibrated with blank solvent or 500 µM BNPP at 37°C for 1 h) and maintained at 37°C under a humidified CO2-enriched (2%) atmosphere for pH control. Samples were collected at 0, 2, 4 and 6 h (n = 2 aliquots per time point) and snap frozen on dry ice and stored at -80°C until analysis by LC/MS.

| Structure (SMILES) | hydrolysis in mouse plasma |
| --- | --- |
| C[C@H](c1cccc2ccccc12)N1CCC(C(=O)NCc2cccc(F)c2)CC1 [Compound 3k] | highly susceptible to hydrolysis in mouse plasma |
| COc1cc(CNC(=O)C2CCN(C(C)c3ccc(OC)c4ccccc34)CC2)ccn1 (stereo not drawn) [Compound 9, 1-[1-(4-methoxynaphthalen-1-yl)ethyl]-N-[(2-methoxypyridin-4-yl)methyl]piperidine-4-carboxamide] | not detected |
| COc1cc(CNC(=O)C2CCN([C@H](C)c3cccc4ccccc34)CC2)ccn1 [Compound 5c] | Plasma-mediated hydrolysis was also evident |
